Out of some 360,000 compounds screened, about 16,000 (4.4%) were called active. Inconclusive means that the source gave no clear call. Such entries were picked first, then a sample of the others. The call rests on the fitted dose curve; in most records, active means well fitted inhibition curve with a large enough effect; inconclusive means small, poorly fitted or top-dose-only effect; inactive means no such curve, though single readings can be large or run the other way. Where the call is inconclusive, the potency comes from a doubtful curve fit.
These molecules were tested against Bromodomain adjacent to zinc finger domain protein 2B (Homo sapiens) (UniProt Q9UIF8) (assay: qHTS Assay for Inhibitors of BAZ2B). Settings: AlphaScreen BAZ2B-H3K14Ac peptide displacement; activity change, negative = inhibition: at 114 µM (top of the series) unless noted.
Sequence of UniProt Q9UIF8 (Q9UIF8 whole entry, looked up, the tested form may be a part): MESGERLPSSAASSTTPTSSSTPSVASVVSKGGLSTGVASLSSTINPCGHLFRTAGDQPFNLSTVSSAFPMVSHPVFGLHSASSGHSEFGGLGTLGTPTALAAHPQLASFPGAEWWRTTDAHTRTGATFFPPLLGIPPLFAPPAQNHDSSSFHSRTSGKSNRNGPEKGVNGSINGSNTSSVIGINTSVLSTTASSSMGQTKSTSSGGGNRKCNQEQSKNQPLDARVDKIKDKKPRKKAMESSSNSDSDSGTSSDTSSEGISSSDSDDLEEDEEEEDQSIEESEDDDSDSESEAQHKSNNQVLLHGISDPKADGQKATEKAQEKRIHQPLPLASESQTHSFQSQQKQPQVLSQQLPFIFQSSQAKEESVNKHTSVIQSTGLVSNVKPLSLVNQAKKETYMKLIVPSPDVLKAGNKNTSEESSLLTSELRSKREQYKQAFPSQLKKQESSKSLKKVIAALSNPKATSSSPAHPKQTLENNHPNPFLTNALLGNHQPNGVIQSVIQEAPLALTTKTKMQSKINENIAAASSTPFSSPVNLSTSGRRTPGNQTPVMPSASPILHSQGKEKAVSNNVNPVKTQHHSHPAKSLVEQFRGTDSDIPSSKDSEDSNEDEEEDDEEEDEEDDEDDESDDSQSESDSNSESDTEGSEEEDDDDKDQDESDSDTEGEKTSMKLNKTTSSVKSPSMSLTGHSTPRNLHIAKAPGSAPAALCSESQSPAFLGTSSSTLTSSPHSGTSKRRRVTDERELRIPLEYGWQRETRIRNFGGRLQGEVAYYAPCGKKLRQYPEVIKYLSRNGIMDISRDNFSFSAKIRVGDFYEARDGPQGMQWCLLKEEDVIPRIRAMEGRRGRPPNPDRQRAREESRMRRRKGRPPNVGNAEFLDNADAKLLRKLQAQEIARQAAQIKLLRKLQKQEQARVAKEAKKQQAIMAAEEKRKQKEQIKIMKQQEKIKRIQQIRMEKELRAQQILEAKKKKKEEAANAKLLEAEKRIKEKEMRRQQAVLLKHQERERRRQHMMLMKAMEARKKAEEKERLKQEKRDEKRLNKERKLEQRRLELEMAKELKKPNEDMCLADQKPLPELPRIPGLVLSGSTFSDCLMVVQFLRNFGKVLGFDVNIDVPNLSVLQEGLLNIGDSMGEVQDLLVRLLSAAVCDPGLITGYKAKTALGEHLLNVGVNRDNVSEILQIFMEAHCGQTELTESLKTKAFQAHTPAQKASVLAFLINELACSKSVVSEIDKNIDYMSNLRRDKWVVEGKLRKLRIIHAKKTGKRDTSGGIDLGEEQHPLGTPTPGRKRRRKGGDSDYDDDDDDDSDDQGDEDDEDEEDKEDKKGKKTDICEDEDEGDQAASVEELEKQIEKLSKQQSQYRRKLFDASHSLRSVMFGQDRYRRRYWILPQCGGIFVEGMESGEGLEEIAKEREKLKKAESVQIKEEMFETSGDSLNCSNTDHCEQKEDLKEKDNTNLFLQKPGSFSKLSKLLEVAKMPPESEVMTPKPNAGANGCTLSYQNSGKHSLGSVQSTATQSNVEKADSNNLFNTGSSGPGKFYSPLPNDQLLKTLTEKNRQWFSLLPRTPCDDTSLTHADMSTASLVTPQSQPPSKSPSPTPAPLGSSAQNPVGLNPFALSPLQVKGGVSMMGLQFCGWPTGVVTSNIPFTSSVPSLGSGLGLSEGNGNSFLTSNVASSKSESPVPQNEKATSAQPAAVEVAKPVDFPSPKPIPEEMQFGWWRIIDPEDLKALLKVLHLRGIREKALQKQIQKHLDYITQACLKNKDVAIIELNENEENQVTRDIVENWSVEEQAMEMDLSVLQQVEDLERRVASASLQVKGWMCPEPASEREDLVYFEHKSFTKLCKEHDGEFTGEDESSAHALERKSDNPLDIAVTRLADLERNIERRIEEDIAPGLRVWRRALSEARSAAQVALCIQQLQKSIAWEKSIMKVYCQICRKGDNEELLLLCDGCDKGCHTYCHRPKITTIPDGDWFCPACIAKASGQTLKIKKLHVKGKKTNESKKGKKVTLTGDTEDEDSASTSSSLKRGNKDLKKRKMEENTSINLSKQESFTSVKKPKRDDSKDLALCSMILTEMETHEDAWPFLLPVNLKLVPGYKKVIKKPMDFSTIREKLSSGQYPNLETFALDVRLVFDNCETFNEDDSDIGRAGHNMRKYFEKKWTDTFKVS
How it was run: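 AlphaScreen displacement: compounds (up to 110uM) incubated 30 min at room temperature with a preformed 50 nM BAZ2B/50 nM biotinylated H3K14Ac peptide complex in PBS pH 7.4 with Tween-20. Donor and acceptor beads at 10 ug/mL final added, 20 min light-protected before reading.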
Further: nearly all actives have a fitted effect of over 60% in size.
On the % scale 0 is the no-effect control and ±100 the full control effect; potency means the concentration at half of the fitted maximal effect; tags describe the fitted curve by direction and shape.

Compound	activity change, negative = inhibition	Potency
CC(=O)Nc1c(O)c2ccccc2[nH]c1=O	inactive: 1.95%	
Cc1ccc(-n2cc3c(c2-c2ccccc2Br)c(=O)n(C)c(=O)n3C)cc1N		active: 50.1 µM
CC(C)n1cc2c(c1-c1ccccc1Cl)c(=O)n(C)c(=O)n2C		inconclusive: 89.1 µM [inhibitor, partial curve]
Cc1ccc(C(C)C)c(OCC(=O)NCC2(N3CCOCC3)CCCCC2)c1	inactive: 11.9%	
COc1ccc(CNc2nc3nc(C)c(Cl)c(=O)n3[nH]2)cc1OC		inconclusive: 100 µM [inhibitor, single point]
O=C(CN(CCO)c1ccccc1)NC12CC3CC(CC(C3)C1)C2		inconclusive: 89.1 µM [inhibitor, single point]
CCCN(CCC)CC(O)Cn1cc(/C=C/C(=O)c2ccc(OC)cc2)c2ccccc21 (configuration not stated)		inconclusive: 28.2 µM [inhibitor, full curve]
Nn1c(-c2cccc(Br)c2)n[nH]c1=S		inconclusive: 89.1 µM [inhibitor, single point]
O=C(CC1=NCCNC(c2ccccc2)C1)c1ccccc1O (configuration not stated)		inconclusive: 100 µM [inhibitor, single point]
Cc1ccc2c(c1)c1c(n2CC(O)Cn2ccnc2C)C(=O)CCC1 (configuration not stated)	inactive: -8.28%	
Cc1cccc(NC(=O)CN2C(=O)CSC2=O)c1		inconclusive: 70.8 µM [inhibitor, single point]
CCC(CC)C(=O)Nc1nc(-c2ccc3c(c2)CCN3C(=O)C2CC2)c(C)s1		inconclusive: 35.5 µM [inhibitor, full curve, poor fit]
CSc1nnc(C)c(/C=C/NOCc2cccc(F)c2)n1		inconclusive: 44.7 µM [inhibitor, partial curve]
COc1ccc(CCN(C)C(=O)CCCN2C(=O)c3cccc4cccc(c34)C2=O)cc1OC		inconclusive: 89.1 µM [inhibitor, single point]
NC(=O)CC(NC(=O)Cc1ccc(Br)cc1)c1ccc(N2CCCCCCC2)c([N+](=O)[O-])c1 (configuration not stated)		inconclusive: 89.1 µM [inhibitor, single point]
NC(=O)c1ccccc1Nc1nc2nc3ccccc3c(=O)n2cc1Br		inconclusive: 89.1 µM [inhibitor, single point]
CCc1ccc2[nH]c(=O)c(CN(CC3CCCO3)C(=S)NCc3ccco3)cc2c1 (configuration not stated)		inconclusive: 39.8 µM [inhibitor, partial curve]
COc1cc(/C=C2\C(=O)N(c3ccccc3)N=C2C)ccc1Oc1ccc([N+](=O)[O-])cc1[N+](=O)[O-]		active: 44.7 µM
Cc1cccc(COc2ccccc2C(=O)NC2CCC(O)CC2)c1 (configuration not stated)	inactive: 12.1%	
CC(C)n1cc(CN2CCC(Oc3ccc(C(=O)N4CCCCC4)cc3)CC2)cn1	inactive: -0.871%	
CCc1ccc(NC(=O)c2sc3nc4c(cc3c2N)CN(CC)CC4)cc1		active: 35.5 µM
Cc1ccc(-c2csc3ncnc(N4CCN(Cc5ccccc5)CC4)c23)cc1		inconclusive: 89.1 µM [inhibitor, single point]
CC(=O)Nc1ccc(S(=O)(=O)NCC(=O)OCC(=O)c2cc(C)n(-c3ccc4c(c3)OCO4)c2C)cc1		inconclusive: 50.1 µM [inhibitor, partial curve]

Compound	activity change, negative = inhibition	Potency
O=C(NC(=S)Nc1ccccc1N1CCOCC1)c1cccc([N+](=O)[O-])c1		inconclusive: 22.4 µM [inhibitor, partial curve]
Cc1ccc(O)c(-c2cc(-c3ccccc3[N+](=O)[O-])[nH]n2)c1		inconclusive: 89.1 µM [inhibitor, single point]
Cc1cc(O)c(/C=N/Nc2ccccc2)c(=O)o1		inconclusive: 89.1 µM [inhibitor, single point]
CCOc1cc(C(=S)N2CCCC2)ccc1OC	inactive: 2.63%	
COc1ccc(C2C(C(C)=O)=C(C)N=c3s/c(=C\c4cc(C)n(C)c4C)c(=O)n32)c(OC)c1 (configuration not stated)		inconclusive: 50.1 µM [inhibitor, partial curve]
CC1Cc2ccccc2N1Cc1ccc([N+](=O)[O-])cc1 (configuration not stated)		active: 35.5 µM
COc1ccc(-n2c(C)cc(C(=O)NC3CCCCC3)c2C)cc1		inconclusive: 39.8 µM [inhibitor, single point]
O=C(Nc1sc2c(c1C(=O)O)CCCCC2)c1ccccc1		inconclusive: 11.2 µM [inhibitor, full curve, poor fit]
CN(c1ccc(C(=O)NCCc2ccccc2)cc1)S(C)(=O)=O		inconclusive: 89.1 µM [inhibitor, single point]
O=C(c1ccc(Cl)cc1)c1cc([N+](=O)[O-])ccc1N1CCOCC1		inconclusive: 35.5 µM [inhibitor, full curve]
COCCNC(=O)CCC1CCN(Cc2cccc(-c3ccc(C)o3)c2)CC1	inactive: -10.2%	
CS(=O)(=O)N(CC(=O)N/N=C/c1ccccn1)c1ccc(Oc2ccccc2)cc1		inconclusive: 79.4 µM [inhibitor, single point]
COc1ccccc1OCC(=O)N/N=C/c1cccc2cccnc12		active: 35.5 µM
Cc1ccc(NC(=O)C2CCN(S(=O)(=O)c3c(C)nn(C)c3C)CC2)c(Cl)c1	inactive: -10.5% [at 57.1 µM]	
COc1ccc(-c2nnn(CC(=O)N3CCN(c4ccc(F)cc4)CC3)n2)cc1	inactive: -20.9%	
CC(CCc1ccccc1)NC(=O)CN1CCSc2ccccc21 (configuration not stated)		inconclusive: 70.8 µM [inhibitor, partial curve]
COc1ccc(OC)c2sc(N3CCN(C(=O)c4ccc5ncsc5c4)CC3)nc12		inconclusive: 50.1 µM [inhibitor, partial curve]
CCOc1ccc2nc(N3C(=O)C(O)=C(C(=O)c4ccco4)C3c3ccco3)sc2c1 (configuration not stated)		active: 50.1 µM
CCC(NC(=O)Nc1cc(Cl)ccc1OC)c1c(-n2cccc2)sc2c1CCN(C)C2 (configuration not stated)		inconclusive: 35.5 µM [inhibitor, partial curve]
CC(=O)C(c1ccccc1)C(c1ccccc1)C(C)[N+](=O)[O-] (configuration not stated)	inactive: -20.7%	
C#CCOCCOCCOCCNc1nc(N2CCN(C(=O)C([C@@H](C)CC)n3cc(C(N)CC(C)C)nn3)CC2)nc(N2CCN(C(=O)[C@H](CCC(=O)O)n3cc(C(N)[C@H](C)CC)nn3)CC2)n1 (some centres not stated)		inconclusive: 79.4 µM [inhibitor, single point]
CCN(Cc1ccccc1)C(=O)CSc1nncn1C		inconclusive: 70.8 µM [inhibitor, single point]
COc1ccccc1COCC(O)CNCCc1ccc(C(F)(F)F)cc1 (configuration not stated)		active: 25.1 µM

Compound	activity change, negative = inhibition	Potency
COc1ccccc1N1CCN(CC(O)COc2ccc3c(c2)CCC3)CC1 (configuration not stated)		inconclusive: 3.16 µM [inhibitor, full curve, poor fit]
S=c1[nH]nc(-c2ccccn2)n1/N=C/c1cccs1		active: 8.91 µM
O=C(Nc1ncccc1O)c1cccc(S(=O)(=O)N2CCCC2)c1		inconclusive: 100 µM [inhibitor, single point]
Cc1ccc(CN(CC(=O)N/N=C/c2ccco2)S(=O)(=O)c2ccc(C)cc2)cc1		inconclusive: 39.8 µM [inhibitor, full curve, poor fit]
CCc1ccc(-n2nc3cc(C)c(NC(=O)c4ccccc4C)cc3n2)cc1		inconclusive: 89.1 µM [inhibitor, single point]
Cc1ccc(N2C(=O)c3ccc(C(=O)N4CCN(Cc5ccccc5)CC4)cc3C2=O)cc1	inactive: -29.8%	
O=C(O)c1ccc(N/N=C/c2cccc3nccnc23)cc1		inconclusive: 79.4 µM [inhibitor, single point]
CCOC(=O)c1c(-c2ccc(C)s2)csc1N		inconclusive: 70.8 µM [inhibitor, partial curve, poor fit]
COc1ccc(C(C(O)C(=O)c2c[nH]c3ccccc23)N2CCN(c3ccccc3)CC2)cc1 (configuration not stated)		inconclusive: 79.4 µM [inhibitor, single point]
COc1cc2c3c(c1)C(C)CC(C)(C)N3C(=O)C2=O (configuration not stated)		inconclusive: 25.1 µM [inhibitor, full curve]
COc1ccc(/[N+]([O-])=C/c2ccoc2)cc1		inconclusive: 50.1 µM [inhibitor, partial curve]
C/C(=N\NC(=S)NC(C)C)c1ccc(Cl)c([N+](=O)[O-])c1		inconclusive: 12.6 µM [inhibitor, full curve, poor fit]
Cc1ccc(S(=O)(=O)Nc2cccc(-c3ccc(N4CCCCCC4)nn3)c2)cc1C		inconclusive: 79.4 µM [inhibitor, single point]
CCOC(=O)c1c(S(=O)(=O)N2CCN(c3ccc(C(C)=O)cc3)CC2)c(C)n(C)c1C		inconclusive: 56.2 µM [inhibitor, partial curve]
FC(F)(F)c1ccccc1NC(=S)N1CCCCCC1	inactive: -1.14%	
Cc1nn(-c2cccc(Cl)c2)c2c1C(c1cccnc1)C(C#N)=C(N)O2 (configuration not stated)		active: 50.1 µM
CN(C)c1ccc(C(C(=O)NCC2CCCO2)N(C(=O)c2snc(C(N)=O)c2N)c2ccc3c(c2)OCO3)cc1 (configuration not stated)		inconclusive: 44.7 µM [inhibitor, partial curve]
COc1ccc(CCNC(=O)c2c(O)nc3ccccn3c2=O)cc1OC	inactive: -5.28%	
CCn1c(=O)n(CC)c2cc(N3CCCC3)c(NC(=O)c3cc(Cl)ccc3OC)cc21		active: 25.1 µM
Cn1c(=O)n(C)c2cc(NC(=O)c3ccc(F)cc3)ccc21		inconclusive: 79.4 µM [inhibitor, single point]
O=[N+]([O-])c1cc(Br)c(O)c(/C=N/Nc2nnnn2-c2cccc3ccccc23)c1		active: 79.4 µM

Reference: PubChem BioAssay AID504333 (National Center for Advancing Translational Sciences (NCATS), 2011)
